# Assay results from US8633212B2, “Inhibitors of beta-secretase” (Vitae Pharmaceuticals, Inc., priority 2009, dated 2014).
# Target: ectodomain of BACE (aa 1-454) fused to a myc-his tag, secreted from HEK293/BACEect. cells (Homo sapiens (Human), UniProt P56817)
# Details: not given
row,Compound,IC50
1,COC1CCC2(CC1)Cc1ccc(CCC3CC3)cc1C21N=C(N)N([C@H](C)c2ccccc2)C1=O (some centres unmarked) [Compound 362],81.1 nM

# Same assay, conditions: footnote b: protocols described in Example 435
row,Compound,IC50
1,CO[C@H]1CC[C@]2(CC1)Cc1ccc(C#N)cc1C21N=C(N)N(Cc2ccccc2)C1=O (some centres unmarked) [Compound 390],26.1 nM
2,CO[C@H]1CC[C@]2(CC1)Cc1ccc(C#CC3CC3)cc1C21N=C(N)N(Cc2nnc(C)s2)C1=O (some centres unmarked) [Compound 545],9.4 nM
3,CO[C@H]1CC[C@]2(CC1)Cc1ccc(Oc3ccc(Cl)cc3)cc1C21N=C(N)N(C)O1 (some centres unmarked) [Compound 595],105 nM
4,CO[C@H]1CC[C@]2(CC1)Cc1ccc(-c3cc(C#N)cs3)cc1C21N=C(N)N(C(C)C)C1=O (some centres unmarked) [Compound 567],250 nM
5,CCc1ccc2c(c1)C1(N=C(N)N(C(C)C)C1=O)[C@]1(CC[C@H](OC)CC1)C2 (some centres unmarked) [Compound 500],199 nM
6,CO[C@H]1CC[C@]2(CC1)Cc1ccc(Br)cc1C21CC(C)(C)SC(N)=N1 (some centres unmarked) [Compound 539],2440 nM
7,COC1CCC2(CC1)Cc1ccc(CCC3CC3)cc1C21N=C(N)N(CC2CCO2)C1=O (centres unmarked) [Compound 377],16.5 nM
8,CC#Cc1cncc(-c2ccc3c(c2)C2(N=C(N)N(C(C)C)C2=O)C2(CCC(OC)CC2)C3)c1 (centres unmarked) [Compound 166],11.5 nM
9,CCO[C@H]1CC[C@]2(CC1)Cc1ccc(-c3cccc(OC)c3)cc1C21N=C(N)N(C)O1 (some centres unmarked) [Compound 597],86 nM
10,CO[C@H]1CC[C@]2(CC1)Cc1ccc(C(=O)O)cc1C21N=C(N)N(Cc2ccccc2)C1=O (some centres unmarked) [Compound 391],566 nM
11,COC1CCC2(CC1)Cc1ccc(OCC3CC3)cc1[C@]21N=C(N)N(C(C)C)C1=O (some centres unmarked) [Compound 174],23.5 nM
12,COC1CCC2(CC1)Cc1ccc(OC3CC3)cc1C21N=C(N)N(C)C1=O (centres unmarked) [Compound 239],29.3 nM
13,CC(=O)N1CCC2(CC1)Oc1ccc(-c3cccc(C#N)c3)cc1C21N=C(N)N(C)C1=O (centres unmarked) [Compound 448],1950 nM
14,CO[C@H]1CC[C@]2(CC1)Cc1ccc(-c3nccs3)cc1C21N=C(N)N(CCF)C1=O (some centres unmarked) [Compound 530],115 nM
15,CO[C@H]1CC[C@]2(CC1)Cc1ccc(C#CC3CC3)cc1C21N=C(N)N(CC(=O)OC(C)C)C1=O (some centres unmarked) [Compound 543],4.5 nM
16,COC1CCC2(CC1)Cc1ccc(C(C)C(F)(F)F)cc1C21N=C(N)N(C)C1=O (centres unmarked) [Compound 263],716 nM
17,COc1cccc(-c2ccc3c(c2)C2(N=C(N)N(C)O2)[C@]2(CC[C@](C)(O)CC2)C3)c1 (some centres unmarked) [Compound 517],877 nM
18,CO[C@H]1CC[C@]2(CC1)Cc1ccc(C3CCCC3)cc1C21N=C(N)N(C(C)C)C1=O (some centres unmarked) [Compound 507],128 nM
19,COc1cccc(-c2ccc3c(c2)C2(N=C(N)N(C)C2=O)[C@]2(CC[C@H](OC(C)C)CC2)C3)c1 (some centres unmarked) [Compound 510],61 nM
20,CCCCCc1ccc2c(c1)C1(N=C(N)N(C(C)C)C1=O)[C@]1(CC[C@H](OC)CC1)C2 (some centres unmarked) [Compound 503],39 nM
21,COCCOc1ccc2c(c1)[C@@]1(N=C(N)N(C)C1=O)C1(CCC(OC)CC1)C2 (some centres unmarked) [Compound 483],960 nM
22,CO[C@H]1CC[C@]2(CC1)Cc1ccc(OCC(F)(F)F)cc1C21N=C(N)N(CCF)C1=O (some centres unmarked) [Compound 552],25 nM
23,COc1ccc2c(c1)C1(N=C(N)N(C)C1=O)C1(CCC(OC)CC1)C2 (centres unmarked) [Compound 233],145 nM

row,Compound,IC50
1,COC1CCC2(CC1)Cc1ccc(CCC3CC3)cc1[C@]21N=C(N)N(C[C@H]2CCO2)C1=O (some centres unmarked) [Compound 379],887 nM
2,COCCN1C(=O)C2(N=C1N)c1cc(Cl)ccc1C[C@]21CC[C@@H](OC)CC1 (some centres unmarked) [Compound 537],88 nM
3,CO[C@H]1CC[C@]2(CC1)Cc1ccc(Br)cc1[C@@]21N=C(N)N(CC(C)(C)O)C1=O [Compound 585],4230 nM
4,CC(=O)N1CCC2(CC1)Oc1ccc(Br)cc1C21N=C(N)N(C)C1=O (centres unmarked) [Compound 447],13500 nM
5,CO[C@H]1CC[C@]2(CC1)Cc1ccc(-n3ccccc3=O)cc1C21N=C(N)N(C)C1=O (some centres unmarked) [Compound 582],458 nM
6,CO[C@H]1CC[C@]2(CC1)Cc1ccc(CCc3ccccc3)cc1C21N=C(N)N(C)O1 (some centres unmarked) [Compound 492],403 nM
7,CO[C@H]1CC[C@]2(CC1)Cc1ccc(CN3CCC(F)(F)C3)cc1C21N=C(N)N(C)C1=O (some centres unmarked) [Compound 576],108 nM
8,CO[C@H]1CC[C@]2(CC1)Cc1ccc(C#CC3CC3)cc1C21N=C(N)N(Cc2ccnnc2)C1=O (some centres unmarked) [Compound 558],4080 nM
9,CO[C@H]1CC[C@]2(CC1)Cc1ccc(CCc3ccccc3)cc1C21N=C(N)N(C(C)C)C1=O (some centres unmarked) [Compound 496],188 nM
10,CO[C@H]1CC[C@]2(CC1)Cc1ccc(CC3CCCCC3)cc1C21N=C(N)N(C(C)C)C1=O (some centres unmarked) [Compound 495],44.3 nM
11,CCCc1ccc2c(c1)C1(N=C(N)N(C(C)C)C1=O)[C@]1(CC[C@H](OC)CC1)C2 (some centres unmarked) [Compound 494],54.3 nM
12,CN1C(=O)[C@]2(N=C1N)c1ccccc1CC21CCc2ccccc2CC1 [Compound 563],169 nM
13,COCCOc1ccc2c(c1)C1(N=C(N)N(C3CCC3)C1=O)[C@]1(CC[C@H](OC)CC1)C2 (some centres unmarked) [Compound 571],112 nM
14,CCCN1C(=O)C2(N=C1N)c1cc(C#N)ccc1CC21CCC(OC)CC1 (centres unmarked) [Compound 485],99.1 nM
15,COCCOc1ccc2c(c1)C1(N=C(N)N(C)C1=O)C1(CCC(OC)CC1)C2 (centres unmarked) [Compound 237],10.6 nM
16,CO[C@H]1CC[C@]2(CC1)Cc1ccc(CCC(C)C)cc1C21N=C(N)N(CC(F)(F)F)C1=O (some centres unmarked) [Compound 512],77 nM
17,COCCCO[C@H]1CC[C@]2(CC1)Cc1ccc(-c3cccc(OC)c3)cc1C21N=C(N)N(C)O1 (some centres unmarked) [Compound 601],293 nM
18,CO[C@H]1CC[C@]2(CC1)Cc1ccc(C#CC3CC3)cc1C21N=C(N)N(CCC(=O)OC(C)C)C1=O (some centres unmarked) [Compound 544],21 nM
19,COCCO[C@H]1CC[C@]2(CC1)Cc1ccc(Cl)cc1C21N=C(N)N(C)C1=O (some centres unmarked) [Compound 538],614 nM
20,CCCCN1C(=O)C2(N=C1N)c1cc(C#N)ccc1CC21CCC(OC)CC1 (centres unmarked) [Compound 482],42.8 nM
21,COC1CCC2(CC1)Cc1ccc(OC(F)(F)C(F)F)cc1[C@]21N=C(N)N(C)C1=O (some centres unmarked) [Compound 243],6.5 nM
22,COC1CCC2(CC1)Cc1ccc(OC(F)(F)C(F)F)cc1[C@@]21N=C(N)N(C)C1=O (some centres unmarked) [Compound 241],9.6 nM
23,COCCOc1ccc2c(c1)[C@@]1(N=C(N)N(C)C1=O)C1(CCc3ccccc3CC1)C2 [Compound 406],6.3 nM

row,Compound,IC50
1,CO[C@H]1CC[C@]2(CC1)Cc1ccc(OCc3ccccc3)cc1C21N=C(N)N(C)O1 (some centres unmarked) [Compound 516],890 nM
2,CN1C(=O)C2(N=C1N)c1cc(-c3cccc(C#N)c3)ccc1CC21CCc2ccccc2CC1 (centres unmarked) [Compound 29],5.3 nM
3,CO[C@H]1CC[C@]2(CC1)Cc1ccc(OCC3CCC3)cc1C21N=C(N)N(CC(F)(F)F)C1=O (some centres unmarked) [Compound 566],134 nM
4,CO[C@H]1CC[C@]2(CC1)Cc1ccc(CCC(C)C)cc1C21N=C(N)N(C)C1=O (some centres unmarked) [Compound 515],10 nM
5,CO[C@H]1CC[C@]2(CC1)Cc1ccc(OCC3CC3)cc1[C@]21N=C(N)N(CC(F)(F)F)C1=O [Compound 559],7 nM
6,CN1C(=O)[C@@]2(N=C1N)c1ccccc1CC21CCc2ccccc2CC1 [Compound 562],8050 nM
7,COC1CCC2(CC1)Cc1ccc(Br)cc1C21CON(C)C(N)=N1 (centres unmarked) [Compound 435],2340 nM
8,COCCOc1ccc2c(c1)C1(N=C(N)N(C(C)C)C1=O)C1(CCC(OC)CC1)C2 (centres unmarked) [Compound 486],87.1 nM
9,CO[C@H]1CC[C@]2(CC1)Cc1ccc(CCC(C)C)cc1C21N=C(N)N(CC(F)F)C1=O (some centres unmarked) [Compound 511],9 nM
10,"COC1CCC2(CC1)Cc1ccc(CCC3CC3)cc1C21N=C(N)N([C@@H](C)c2ccccc2)C1=O (single isomer, unassigned) [Compound 360]",97.8 nM
11,CCCSc1ccc2c(c1)C1(N=C(N)N(CCOC)C1=O)C1(CCC(OC)CC1)C2 (centres unmarked) [Compound 533],8.9 nM
12,C=C(c1ccc2c(c1)C1(N=C(N)N(C)C1=O)C1(CCC(OC)CC1)C2)C(F)(F)F (centres unmarked) [Compound 260],1070 nM
13,CO[C@H]1CC[C@]2(CC1)Cc1ccc(-c3ncc(C)s3)cc1C21N=C(N)N(CC(F)(F)F)C1=O (some centres unmarked) [Compound 532],320 nM
14,CO[C@H]1CC[C@]2(CC1)Cc1cc(F)c(OCC(F)(F)F)cc1C21N=C(N)N(C)O1 (some centres unmarked) [Compound 518],53 nM
15,COCCOc1ccc2c(c1)[C@]1(N=C(N)N(C)C1=O)C1(CCC(OC)CC1)C2 (some centres unmarked) [Compound 484],7.2 nM
16,CN1C(=O)C2(N=C1N)c1cc(C#CC3CC3)ccc1CC21CCC(OC(=O)[C@@H](N)Cc2ccc(O)cc2)CC1 (some centres unmarked) [Compound 258],640 nM
17,CO[C@H]1CC[C@]2(CC1)Cc1ccc(OCC(C)C)cc1C21N=C(N)N(CC(F)(F)F)C1=O (some centres unmarked) [Compound 561],11.7 nM
18,COC1CCC2(CC1)Cc1ccc(CCC(F)(F)F)cc1C21N=C(N)N(C)C1=O (centres unmarked) [Compound 256],11.6 nM
19,COC1CCC2(CC1)Cc1ccc(C#CC3CC3)cc1[C@@]21N=C(N)N(C[C@H]2CCCO2)C1=O (some centres unmarked) [Compound 337],262 nM
20,COCCOc1ccc2c(c1)[C@]1(N=C(N)N(C)C1=O)C1(CCc3ccccc3CC1)C2 [Compound 407],2130 nM
21,CO[C@H]1CC[C@]2(CC1)Cc1ccc(C(C)C)cc1C21N=C(N)N(C(C)C)C1=O (some centres unmarked) [Compound 499],149 nM
